This is an account of results in PubChem BioAssay AID1508642 (National Center for Advancing Translational Sciences (NCATS), 2021).

The campaign covered roughly 43,000 compounds. About 200 (0.47%) were called active. Not shown: some 12% with an inconclusive outcome. The call rests on the fitted dose curve; in most records, active means well fitted cell-killing curve with a large enough effect; inconclusive means small, poorly fitted or top-dose-only effect, or effect the other way; inactive means flat fitted curve, though single readings scatter. Some of the results follow.
On the % scale 0 is the no-effect control and ±100 the full control effect.

The nature of this assay: Cell viability qHTS assay in S16 Pmp22-F2sN cells. Further: nearly all actives have a fitted effect of over 65% in size. The following applies: S16 Pmp22-F2sN Schwann cells (luciferase reporters placed in the Pmp22 gene) viability, CellTiter-Glo, 24 h; series mostly up to 57.5 µM; activity change, negative = cytotoxicity: at the top concentration. In short, it runs like this: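 Seed 500-1,000 S16 Pmp22-F2sN cells per well in phenol-red-free DMEM with 10% heat-inactivated FBS; pin-add 23 nL compound; incubate 24 h at 37C; add CellTiter-Glo, wait 15 min protected from light; read luminescence.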
`CSc1nn(CC(=O)Nc2ccccc2F)c(N)c1S(=O)(=O)c1ccccc1`: the “activity change, negative = cytotoxicity” value is inactive: 15.8%.

Turning to `COc1ccc(CNC(=O)Cc2c(C)c3cc4c(C)coc4cc3oc2=O)cc1`, the “activity change, negative = cytotoxicity” value was inactive: -0.228%.

On to `Cc1ccc(N2CCn3c2nc2c3c(=O)n(C/C=C/c3ccccc3)c(=O)n2C)cc1C`, for which the “activity change, negative = cytotoxicity” value was inactive: 18.7%.

Regarding `COCCCNC(=O)Cn1c(=O)n(-c2cccc(C)c2)c(=O)c2c1c1cc(C)ccc1n2C`, the “activity change, negative = cytotoxicity” value is inactive: 23.5%.

As to `COc1cc(/C=C(\C#N)c2nc3ccccc3[nH]2)ccc1OCc1ccc(F)cc1`, the “activity change, negative = cytotoxicity” value is inactive: -3.04%.

`CCCN(CCC)CCCNC(=O)c1cnn(-c2ccc(F)cc2)c1-n1cccc1`: the “activity change, negative = cytotoxicity” value was inactive: -3.78%.

For the molecule `Cc1nn(C(C)C(=O)Nc2ccc(C(C)C)cc2)c(=O)c2c1sc1ccccc12` (stereo unspecified), the “activity change, negative = cytotoxicity” value is inactive: 2.12%.

Consider `CC(NC(=O)C1CCN(S(=O)(=O)c2ccccc2)CC1)c1ccccc1` (stereo unspecified), for which the “activity change, negative = cytotoxicity” value is inactive: -4.39%.

For `Cc1ccccc1CNC(=O)C1=Cc2ccccc2OC1`, the “activity change, negative = cytotoxicity” value was inactive: 1.79%.

Take `Cc1cccc(-c2nn3c(=O)cc(CN4CCN(C(=O)c5ccccc5Br)CC4)nc3s2)c1`: the “activity change, negative = cytotoxicity” value was inactive: -5.67%.

For the molecule `C#CC(C)(CC)NC(=O)Cn1nnc(-c2ccc(OCc3ccccc3C)cc2)n1` (stereo unspecified), the “activity change, negative = cytotoxicity” value is inactive: -26.7%.

Turning to `COc1ccccc1N1CCN(C(=O)c2cnn(-c3cccc(Cl)c3)c2C2CCN(C(=O)OC(C)(C)C)CC2)CC1`, the “activity change, negative = cytotoxicity” value is inactive: -17%.

Consider `COc1ccccc1CNc1nc(-c2ccco2)nn1C(=O)c1cc(OC)c(OC)c(OC)c1`, for which the “activity change, negative = cytotoxicity” value is inactive: 7.53%.

On to `Cc1ccc(-c2nnc(Nc3ccc(OC(F)(F)Cl)cc3)c3ccccc23)cc1S(=O)(=O)NC(C)(C)CO`, for which the “activity change, negative = cytotoxicity” value is inactive: 1.19%.

Turning to `CC(=O)N1CCc2c(sc3nc(SCC(C)C)n(-c4ccc(C)c(Cl)c4)c(=O)c23)C1`, the “activity change, negative = cytotoxicity” value was inactive: 20.4%.

Turning to `O=C(COc1ccccc1)N(Cc1cccnc1)c1nc2c(F)cccc2s1`, the “activity change, negative = cytotoxicity” value is inactive: -1.13%.

As for `Nc1ccc(NC(=O)c2cccc(C(=O)Nc3ccc(N)cc3Cl)c2)c(Cl)c1`, the “activity change, negative = cytotoxicity” value was inactive: -2.63%.

Take `CCCCn1c(=N)c(S(=O)(=O)c2ccc(C)cc2)cc2c(=O)n3cc(C)ccc3nc21`: the “activity change, negative = cytotoxicity” value was inactive: 14%.

Consider `O=C(Nc1ccc(-c2nc3cc(NC(=O)c4ccc(F)cc4)ccc3o2)cc1)c1ccc(F)cc1`, for which the “activity change, negative = cytotoxicity” value was inactive: 3.95%.

Consider `CCc1nn2c(=O)cc(COC(=O)c3ccc(NC(=O)CCc4ccccc4)cc3)nc2s1`, for which the “activity change, negative = cytotoxicity” value was inactive: -3.69%.

For `Cc1c(C(=O)N2CCCC2)oc2c1-c1nn(CC(=O)NCc3ccccc3Br)cc1CC2`, the “activity change, negative = cytotoxicity” value is inactive: -8.44%.

With `Cc1ccc(/C=C/c2onc(C)c2S(=O)(=O)N2CCC(C(=O)N3CCOc4ccc(C)cc43)CC2)cc1`, the “activity change, negative = cytotoxicity” value is inactive: -4%.

With `COc1ccc(NC(=O)CCS(=O)(=O)c2nc(-c3ccc4c(c3)OCO4)cc(C(F)(F)F)n2)cc1`, the “activity change, negative = cytotoxicity” value is inactive: 4.59%.

Consider `CSc1ccc(C2CC(=O)Oc3c2c(=O)n(C)c2ccccc32)cc1` (stereo unspecified), for which the “activity change, negative = cytotoxicity” value is inactive: -2.72%.

As for `Cc1ccc2[nH]cc(S(=O)(=O)c3ccc(C)c(C)c3)c(=O)c2c1`, the “activity change, negative = cytotoxicity” value is inactive: -6.51%.

Regarding `Cc1ccc(F)cc1NC(=O)CCc1c(C)nn(-c2ccc(N3CCOCC3)nn2)c1C`, the “activity change, negative = cytotoxicity” value is inactive: -5.9%.

For the molecule `CC1Cn2c(C(=O)NCCc3ccc(Cl)cc3)cc3cccc(c32)S1` (stereo unspecified), the “activity change, negative = cytotoxicity” value is inactive: 1.45%.

For the molecule `Cc1cc(=O)n(C(C)C(=O)N2CCCc3ccccc32)c2c1c(C)nn2-c1ccccc1` (stereo unspecified), the “activity change, negative = cytotoxicity” value was inactive: -19.8%.

Turning to `COc1ccc(-c2cc(C(=O)Oc3ccc(C)cc3)c3cc(C)ccc3n2)cc1`, the “activity change, negative = cytotoxicity” value was inactive: -5.69%.

On to `Cc1nn2c(-c3ccco3)ccnc2c1-c1ccc(Br)cc1`, for which the “activity change, negative = cytotoxicity” value was inactive: 27.2%.

In the case of `CCOc1ccc(C(=O)c2cn(CC(=O)Nc3cccc(OC)c3)c3cc4c(cc3c2=O)OCCO4)cc1`, the “activity change, negative = cytotoxicity” value was inactive: -2.5%.

Consider `Cc1c(C(=O)N2CCCCC2)c(S(=O)(=O)NCc2ccc(N(C)C)cc2)c(C)n1C`, for which the “activity change, negative = cytotoxicity” value was inactive: 17.3%.

Consider `Cc1ccc(-c2cc(N)n(-c3ccc(C)cc3)n2)cc1`, for which the “activity change, negative = cytotoxicity” value is inactive: -3.25%.

As to `Cn1c(=O)c2c(nc(N3CCOCC3)n2Cc2cccc(Br)c2)n(C)c1=O`, the “activity change, negative = cytotoxicity” value was inactive: -11.3%.

`Cc1ccccc1CNC(=O)Cc1ccc(NC(=O)N2CCCCc3ccccc32)cc1`: the “activity change, negative = cytotoxicity” value is inactive: -20.3%.

For the molecule `COc1ccc(N2CCN(C(CNC(=O)C(=O)NCc3cccnc3)c3cccnc3)CC2)cc1` (stereo unspecified), the “activity change, negative = cytotoxicity” value was inactive: -11%.

In the case of `CCOc1ccc(NC(=O)C2CCN(c3nnc(C)c4c(C)n(-c5ccccc5)nc34)CC2)cc1`, the “activity change, negative = cytotoxicity” value is inactive: 9.67%.

Turning to `Cc1ccc(NC(=O)CSc2nc3c([nH]c4ccccc43)c(=O)n2-c2ccccc2)cc1Cl`, the “activity change, negative = cytotoxicity” value is inactive: -17.5%.

As for `Cc1ccc(-c2[nH]c3c(c2-c2c(-n4cccc4)n(C)c(=O)[nH]c2=O)c(=O)[nH]c(=O)n3C)cc1`, the “activity change, negative = cytotoxicity” value was inactive: 11.1%.

Consider `CCOC(=O)c1c(C)oc2nc(C)nc(N3CCN(c4ccccc4F)CC3)c12`, for which the “activity change, negative = cytotoxicity” value was inactive: -1.29%.

For the molecule `COc1ccccc1CNC(=O)C(C)n1ccc2cc(S(=O)(=O)N3CCCC3)ccc21` (stereo unspecified), the “activity change, negative = cytotoxicity” value was inactive: -28.8%.

For `COc1ccc(CNC(=O)c2ccc3nc(CCc4ccccc4)oc3c2)cc1`, the “activity change, negative = cytotoxicity” value was inactive: 14.7%.

`CCN(c1ccccc1)S(=O)(=O)c1cc(Br)cc2c1N(C(=O)C1CC1)CC2`: the “activity change, negative = cytotoxicity” value is inactive: 4.27%.

`Cc1ccc(C(=O)N2CCc3cc(CNC(=O)CSc4ccccc4)ccc32)cc1`: the “activity change, negative = cytotoxicity” value is inactive: -28%.

Consider `CCCNC(=O)C1=CC(c2ccc3c(c2)OCO3)=NS(=O)(=O)N1C`, for which the “activity change, negative = cytotoxicity” value is inactive: -0.916%.

Take `COc1cc(OC)c(OC)cc1CN1CCc2nc(Nc3ccc4c(c3)OCCO4)ncc2C1`: the “activity change, negative = cytotoxicity” value is inactive: 2.64%.
